Tested on: rats
Assay: Inhibitory Avoidance task, normal rats

C[C@H](N)Cc1ccccc1 [(S)-(+)-amphetamine, reference compound]
retention of the IA task (about 2 mg/kg, thirty minutes prior to training (FIG. 1)): improved retention of the task
retention of the IA task (about 0.25, about 0.50 and about 1.0 mg/kg, thirty minutes prior to training (FIG. 1)): had no effect
retention of the IA task (second experiment, about 2.0 mg/kg (FIG. 2), unpaired t-test p<0.01): significantly improved retention of the task
